Test results taken from the supplement of paper PMC7826260.
The other results are listed elsewhere or left out. Cleavage of a single-stranded DNA pool by Rep nickase domains was read by sequencing at 3 µM enzyme and 37 °C for 1 h; the strands have 90 letters, of which the middle is given. Values are log2 of uncut reads against the no-enzyme pool; more negative means more cut, near 0 not cut, and no call is made. Shares of all reads are compared, so uncut sequences can rise above 0 when many others are cut.

What was measured:
Experiment in all cases: uncleaved DNA left, log2 of reads against the no-enzyme library (log2 ratio); higher = less cleavage (more negative = more Rep cleavage of the k-mer); sequences stand for … in CTCGTCCG…ACCGGAGA
[1] = test system: T1, Rep nickase domain of Muscovy duck circovirus
T1 sequence (Rep 1-111, printed without the tag): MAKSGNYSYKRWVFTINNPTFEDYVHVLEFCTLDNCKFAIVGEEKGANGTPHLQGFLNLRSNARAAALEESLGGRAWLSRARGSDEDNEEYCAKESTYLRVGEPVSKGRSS
Method: (§1)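 A pool of 90-nt single-stranded DNAs with seven random bases just before the constant AC of the nick site (name = the seven bases) was cut by 3 µM recombinant His6-SUMO-tagged Rep nickase domain (300 nM DNA, 50 mM HEPES pH 8.0, 50 mM NaCl, 1 mM MnCl2, 1 h, 37 °C, three replicates). Uncut DNA was amplified and sequenced.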

[2] = test system: T2, Rep nickase domain of banana bunchy top virus
T2 sequence (Rep 1-94, printed without the tag): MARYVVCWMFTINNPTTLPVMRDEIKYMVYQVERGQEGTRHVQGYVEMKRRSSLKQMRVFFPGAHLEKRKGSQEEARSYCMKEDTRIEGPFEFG
Method: as §1

[3] = test system: T3, Rep nickase domain of cabbage leaf curl virus
T3 sequence (Rep 1-116, printed without the tag): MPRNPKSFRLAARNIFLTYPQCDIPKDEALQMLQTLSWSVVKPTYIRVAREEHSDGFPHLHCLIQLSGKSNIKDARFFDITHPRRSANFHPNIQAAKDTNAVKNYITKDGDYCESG
Method: as §1

[4] = test system: T4, Rep nickase domain of chickpea chlorotic dwarf virus
T4 sequence (Rep 1-124, printed without the tag): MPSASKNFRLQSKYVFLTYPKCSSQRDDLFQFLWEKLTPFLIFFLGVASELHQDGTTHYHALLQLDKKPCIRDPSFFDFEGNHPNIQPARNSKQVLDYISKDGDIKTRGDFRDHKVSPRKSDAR
Method: as §1

[5] = test system: T5, Rep nickase domain of faba bean necrotic yellows virus
T5 sequence (Rep 1-98, printed without the tag): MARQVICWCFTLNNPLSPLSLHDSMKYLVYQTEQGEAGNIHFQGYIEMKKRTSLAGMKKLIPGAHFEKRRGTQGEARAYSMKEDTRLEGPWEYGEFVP
Method: as §1

[6] = test system: T6, Rep nickase domain of maize striate mosaic virus
T6 sequence (Rep 1-117, printed without the tag): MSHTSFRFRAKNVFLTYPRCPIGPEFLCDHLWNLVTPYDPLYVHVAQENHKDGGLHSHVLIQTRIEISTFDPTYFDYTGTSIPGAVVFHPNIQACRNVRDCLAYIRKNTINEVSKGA
Method: as §1

[7] = test system: T7, Rep nickase domain of porcine circovirus 2
T7 sequence (Rep 2-116, printed without the tag): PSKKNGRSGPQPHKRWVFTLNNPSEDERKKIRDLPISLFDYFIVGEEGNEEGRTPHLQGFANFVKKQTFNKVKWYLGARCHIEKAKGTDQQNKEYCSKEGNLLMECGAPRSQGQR
Method: as §1

[8] = test system: T8, Rep nickase domain of tomato golden mosaic virus
T8 sequence (Rep 1-124, printed without the tag): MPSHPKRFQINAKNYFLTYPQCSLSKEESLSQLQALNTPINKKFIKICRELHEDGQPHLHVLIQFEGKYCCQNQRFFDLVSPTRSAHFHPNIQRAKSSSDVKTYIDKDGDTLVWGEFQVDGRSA
Method: as §1

[9] = test system: T9, Rep nickase domain of tomato yellow leaf curl virus
T9 sequence (Rep 1-136, printed without the tag): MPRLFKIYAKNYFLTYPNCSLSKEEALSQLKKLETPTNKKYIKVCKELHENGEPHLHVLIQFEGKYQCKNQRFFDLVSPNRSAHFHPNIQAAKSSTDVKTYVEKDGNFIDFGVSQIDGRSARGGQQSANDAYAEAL
Method: as §1

[10] = test system: T10, Rep nickase domain of wheat dwarf virus
T10 sequence (Rep 1-137, printed without the tag): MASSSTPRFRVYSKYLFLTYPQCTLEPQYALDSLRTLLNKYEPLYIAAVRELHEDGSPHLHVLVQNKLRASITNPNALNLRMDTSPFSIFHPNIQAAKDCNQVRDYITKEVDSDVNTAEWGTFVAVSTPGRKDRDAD
Method: as §1

Row | Sequence | uncleaved DNA left (log2) [1] | uncleaved DNA left (log2) [2] | uncleaved DNA left (log2) [3] | uncleaved DNA left (log2) [4] | uncleaved DNA left (log2) [5] | uncleaved DNA left (log2) [6] | uncleaved DNA left (log2) [7] | uncleaved DNA left (log2) [8] | uncleaved DNA left (log2) [9] | uncleaved DNA left (log2) [10]
1 | GTGAAGC | -0.0131 | 0.0915 | 0.183 | 0.734 | -0.0193 | 1.34 | -0.0187 | 0.00411 | -0.014 | -0.00708
2 | CTAGTGC | 0.0997 | 0.0668 | -0.548 | -0.773 | 0.0206 | -0.945 | 0.191 | -0.0127 | 0.18 | -0.0406
3 | CGAGCGG | -0.0868 | 0.0804 | 0.153 | 0.817 | 0.0338 | 1.03 | 0.099 | 0.0834 | -0.0398 | 0.117
4 | TATACGT | 0.0306 | -0.123 | 0.174 | -0.373 | -0.00118 | 0.228 | -0.142 | 0.00118 | 0.00653 | -0.0694
5 | TTTGGGG | 0.0857 | 0.102 | 0.225 | 0.315 | 0.0392 | -0.096 | 0.237 | 0.141 | -0.038 | -0.0263
6 | ACATCGG | -0.104 | -0.0372 | -0.471 | -0.146 | -0.0547 | -0.614 | 0.163 | -0.0163 | 0.00592 | -0.142
7 | TTGTTTC | -0.0263 | -0.234 | -0.00631 | -0.128 | -0.253 | -0.424 | -0.194 | -0.268 | -0.0507 | -0.27
8 | CGCAATG | -0.0631 | 0.096 | 0.333 | 1.49 | -0.00365 | 1.44 | -0.0327 | 0.0191 | -0.189 | 0.101
9 | TCATCCC | -0.202 | -0.114 | 0.00943 | -0.132 | -0.0565 | -0.212 | -0.0483 | -0.0545 | -0.0791 | -0.0719
10 | GTATCCC | 0.134 | 0.0776 | 0.312 | 0.83 | 0.0506 | 1.57 | -0.0625 | 0.13 | 0.0854 | 0.103
11 | CGGCTAC | 0.0407 | -0.00493 | 0.0952 | -0.0572 | -0.174 | 0.513 | 0.125 | -0.0311 | 0.0473 | 0.0585
12 | TGGGCGG | 0.00868 | 0.0499 | 0.365 | 1.08 | 0.0209 | 1.49 | 0.0766 | 0.015 | -0.00627 | -0.0962
13 | CTAGAGG | 0.0751 | 0.087 | 0.366 | 1.21 | 0.0319 | 1.03 | 0.152 | 0.246 | -0.0207 | 0.00856
14 | GGCGTGT | -0.162 | -0.0136 | 0.346 | 0.74 | -0.0263 | 1.32 | 0.02 | 0.0549 | 0.0571 | 0.027
15 | CATATCT | -0.0944 | -1.74 | -0.399 | -2.85 | -0.036 | -0.905 | -1.46 | 0.0298 | 0.059 | 0.0252
16 | CCCCACT | -0.201 | -0.215 | -0.333 | -2.48 | -0.128 | -0.668 | -0.355 | -0.0943 | -0.293 | -0.0917
17 | ACTGCGC | -0.00946 | -0.0405 | -0.465 | 0.226 | 0.108 | -0.501 | 0.0962 | 0.0269 | 0.0221 | 0.0231
18 | CTGAGTT | 0.000931 | -0.0324 | -0.0439 | -1.67 | -0.0564 | -0.521 | -0.271 | -0.151 | 0.0958 | -0.136
19 | CAGCTCT | -0.0864 | -0.149 | -0.876 | -2.88 | -0.183 | -0.638 | -3.17 | -0.326 | -0.124 | -0.278
20 | AGACGCA | 0.0398 | -0.0385 | 0.206 | -0.27 | -0.0254 | 1.02 | -0.000196 | 0.07 | -0.0814 | -0.0325
21 | TCCCTTT | 0.0169 | -0.0172 | -0.0191 | -2.05 | 0.0354 | -0.542 | -0.408 | 0.0464 | 0.0322 | -0.201
22 | GCGGGAC | -0.0451 | 0.0945 | 0.794 | 1.77 | -0.121 | 2.21 | 0.195 | 0.175 | -0.0153 | 0.0538
23 | CACAGAC | 0.152 | 0.102 | 0.161 | 0.255 | 0.0408 | -0.427 | 0.324 | -0.0094 | 0.109 | 0.0882
24 | ATCCCCT | 0.0537 | 0.0229 | -0.172 | -1.33 | -0.00464 | -0.103 | -0.13 | -0.0972 | -0.039 | 0.0275
25 | GCTCTAA | 0.0367 | 0.152 | 0.133 | 0.617 | -0.0189 | 0.464 | 0.067 | 0.079 | 0.125 | 0.0754
26 | AGGGCAA | 0.262 | 0.29 | 0.779 | 1.78 | 0.148 | 1.88 | 0.452 | 0.228 | 0.198 | 0.271
27 | TATGATT | -0.464 | -0.736 | -3.01 | -2.81 | 0.107 | -0.168 | -2.16 | -0.325 | 0.144 | -0.551
28 | ACTCTAT | -0.00332 | -0.0732 | -0.287 | -0.843 | -0.0177 | -0.596 | -0.0951 | -0.0491 | -0.05 | -0.0622
29 | TGGGTCG | 0.0444 | -0.00474 | -0.428 | 0.355 | 0.103 | -0.422 | 0.218 | 0.0259 | 0.0898 | -0.0103
30 | GCCCCCA | -0.153 | 0.0264 | 0.257 | -0.0344 | -0.0187 | 0.373 | -0.0971 | -0.0749 | -0.116 | -0.0409
